Reference: PubChem BioAssay AID686978 (National Center for Advancing Translational Sciences (NCATS), 2013)
Hit rate of the full screen: of about 420,000 compounds, about 64,000 (15%) were called active. The inconclusive results got no clear call from the source; some entries with a clear call stand among them for comparison. Calls come from the whole dose curve; as a rule, active = well fitted inhibition curve with a large enough effect; inconclusive = small, poorly fitted or top-dose-only effect; inactive = flat fitted curve, though single readings scatter. No potency is given beside an inconclusive call; the fits are too rough.

Assay: qHTS for Inhibitors of human tyrosyl-DNA phosphodiesterase 1 (TDP1): qHTS in cells in absence of CPT; note: nearly all actives have a fitted effect of over 55% in size
Details: DT40 Tdp1-/- hTDP1 cells, no CPT, ATP luminescence, 48 h; activity change, negative = growth inhibition: at 46.2 µM (top of the series) unless noted
Procedure, shortened: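 Camptothecin absent (DMSO only). Human TDP1-complemented DT40 knockout cells, 400 cells/well, 37 °C for minimum 48 hr; ATP measured via CellTiter-Glo, 30 min dark incubation, luminescence.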
% is set by controls: 0 for no effect and ±100 for the full control effect; potency is the fitted concentration of half-maximal effect; tags give direction and shape of the fitted curve.

| SMILES | Potency | activity change, negative = growth inhibition |
| --- | --- | --- |
| Cc1nnc(SCC(=O)Nc2cc(-c3cc(C)c(C)cc3C)nn2-c2ccccc2)s1 | active: 11.6 µM |  |
| Cc1cc(C)c(NC(=O)Cn2nc(-c3ccccc3)nc2-c2ccccc2)c(C)c1 | inconclusive [inhibitor, partial curve, poor fit] |  |
| CO[C@H]1/C=C\O[C@@]2(C)Oc3c(C)c(O)c4c(O)c(c(C=NN5CCN(C6CCCC6)CC5)c(O)c4c3C2=O)NC(=O)C(C)=CC=C[C@H](C)[C@H](O)[C@@H](C)[C@@H](O)[C@@H](C)[C@H](OC(C)=O)[C@H]1C | active: 3.16 µM |  |
| CC(C)c1ccc(/C=C(\c2nc3ccccc3[nH]2)S(=O)(=O)c2ccccc2)cc1 | active: 4.61 µM |  |
| Cc1cccc(NC(=S)Nc2cccc(C(F)(F)F)c2)n1 | inconclusive [inhibitor, single point] |  |
| C=C(c1ccccc1)c1ccccc1N |  | inactive: 5.15% |
| Cc1ccc(Nc2nc(N)nc(N)c2N=O)cc1Cl | active: 13.2 µM |  |
| Cc1ccccc1OCC(=O)OCc1cc(=O)n2ccsc2n1 | inconclusive [inhibitor, single point] |  |
| O=C(CCNC(=O)Cn1ccc2ccccc2c1=O)NCCN1CCN(c2cccc(Cl)c2)CC1 | inconclusive [inhibitor, partial curve, poor fit] |  |
| CCCC[C@@H]1Cc2[nH][nH]c(=O)c2[C@H](c2ccc(C(C)C)cc2)O1 | inconclusive [inhibitor, single point] |  |
| CN(C)c1ccc(C#Cc2ccc3cc(CCCO)oc(=O)c3c2)cc1 |  | inactive: -26.9% |
| Cc1cccc(C(=O)N/N=C/c2ccc(OCC(=O)N3CCCCC3)cc2)c1 |  | inactive: 1.95% |
| O=C(c1nn(-c2ccccc2)c(=O)c2ccccc12)N1CCN(c2ccccn2)CC1 | inconclusive [inhibitor, partial curve] |  |
| COc1ccc(OC)c(-n2c(SCC(C)=O)nnc2-c2cccc(S(=O)(=O)N(C)C)c2)c1 |  | inactive: -18.4% |
| O=S(=O)(NCCc1cn2ccccc2n1)c1ccc(-c2ccccc2)cc1 | inconclusive [inhibitor, single point] |  |
| CCC(C)NC(=O)c1cc2c(=O)[nH]c3ccc(C)cc3c2s1 (stereo not given) | inconclusive [inhibitor, single point] |  |
| COC(=O)C[C@H]1C=C[C@@H](NC(=O)NC2CCCCC2)[C@@H](CO)O1 |  | inactive: -1.56% |
| COc1cccc(C=Nc2ccccc2C(=O)Nc2nccs2)c1OC | inconclusive [inhibitor, single point] |  |
| CCOC(=O)C1CCCN(S(=O)(=O)c2cc(OCC(N)=O)c(C)cc2Cl)C1 (stereo not given) |  | inactive: -9.15% |
| CN(CC1CCCO1)S(=O)(=O)c1ccc(C(=O)Nc2nnc(-c3ccccc3)o2)cc1 (stereo not given) | active: 8.2 µM |  |
| CC(C)(C)c1ccc(C(=O)NCc2nnc(SCC(=O)NCC3CCCO3)o2)cc1 (stereo not given) |  | inactive: -20.7% |
| COc1ccccc1CCNC(=O)Nc1cccc([N+](=O)[O-])c1 | inconclusive [inhibitor, single point] |  |
| CCOC(=O)C1CCN(C(=O)c2cc(S(=O)(=O)N3CCCCC3)ccc2C)CC1 |  | inconclusive: -33.6% [inhibitor] |

| SMILES | Potency | activity change, negative = growth inhibition |
| --- | --- | --- |
| Cc1ccc2c(CC(=O)Nc3ccc(F)c(S(=O)(=O)N4CCOCC4)c3)coc2c1 | inconclusive [inhibitor, single point] |  |
| Cc1cc(S(=O)(=O)N2CCOCC2)ccc1OCC(=O)Nc1ccc(Br)cc1F |  | inactive: 1.09% |
| COc1ccc(NC(=O)c2cccs2)cc1C(=O)N1CCN(c2ccccc2)CC1 | inconclusive [inhibitor, single point] |  |
| CC1CCc2sc(C(=O)NCc3ccccn3)cc2C1 (stereo not given) | active: 16.4 µM |  |
| O=C(NC(=S)NNC(=O)c1ccccc1O)c1cccs1 | active: 25.9 µM |  |
| O=C(Cn1cnc2c(nnn2-c2ccccc2)c1=O)N1CCC(Cc2ccccc2)CC1 | active: 20.6 µM |  |
| CCc1cccc(NC(=O)CN(C)S(=O)(=O)c2cccc3nsnc23)c1 | inconclusive [inhibitor, single point] |  |
| CCOC(=O)c1cccc(NC(=O)CSc2nc(N)cc(N)n2)c1 |  | inactive: -14.5% |
| O=C(NC(=S)Nc1cc(C(F)(F)F)ccc1Cl)c1ccccc1 | inconclusive [inhibitor, partial curve, poor fit] |  |
| CCc1cccc(C)c1NC(=O)c1cccc(N(C)C)c1 | inconclusive [inhibitor, single point] |  |
| CSc1nc(N)nc2c1ncn2CC(=O)NCc1ccccc1 | inconclusive [inhibitor, single point] |  |
| O=C(NCCO)c1ccc2c3n(nc2c1)-c1ccccc1CO3 | inconclusive [inhibitor, partial curve] |  |
| Cc1ccccc1CNC(=O)C1CCN(c2nnc(C)c3c(C)n(-c4ccccc4)nc23)CC1 | inconclusive [inhibitor, single point] |  |
| O=C(Nc1ccc2nc(-c3ccccn3)[nH]c2c1)C1CCCCC1 | inconclusive [inhibitor, single point] |  |
| OCCCNc1ncnc2sc3c(c12)CCN(Cc1ccccc1)C3 | active: 18.4 µM |  |
| Cn1c(=O)c2c(nc(SCc3ccc(F)cc3)n2C)n(C)c1=O | inconclusive [inhibitor, single point] |  |
| CCCCN(S(=O)(=O)c1ccccc1)S(=O)(=O)c1ccccc1 | inconclusive [inhibitor, partial curve, poor fit] |  |
| COc1ccc(OC)c(NC(=O)c2cccc(N3C(=O)C4C5CCC(C5)C4C3=O)c2)c1 (stereo not given) | active: 16.4 µM |  |
| O=C(c1cccc(F)c1)N1CCC2(CC1)CCN(C(c1ccccc1)c1ccccc1)CC2 | active: 23.1 µM |  |
| CCCCn1nnnc1C1(C)CCC(=O)N1CCCn1ccnc1 (stereo not given) | active: 16.4 µM |  |
| Cc1ccc(N=Nc2c(C)[nH]n(-c3ccccc3)c2=O)c(C)c1 | inconclusive [inhibitor, single point] |  |
| Cc1ccc(Cn2c(C)c(C(=O)NCc3cccc(C(F)(F)F)c3)sc2=O)cc1 |  | inactive: 0.627% |
